The source gives no read counts; variants with many changes may rest on few reads.
B1: LINE1-mini (parent)
chain: GGCAGAGCUCAACACAGCGUGGCAAAGUGGCUGUGGCUAGACUGCC

Variants of: B1
Assay: self-cleavage, relative activity (ratio to wild type); higher = more cleavage; in vitro, sequencing; the parent is a self-cleaving ribozyme

Row | Variant | self-cleavage
1 | C15G A26U G29C U34A G40C G44C | 0.01
2 | A14U C31G G33C A39C U43A C46U | 0.03
3 | C15A C18A G19A G36U C42G | 0.07
4 | C15G A39C A41U | 0.05
5 | A14C G21C C23A A25G | 0.03
6 | C15A G19C G27A U32C U38A | 0.02
7 | A14U C15G U28A C31A | 0.02
8 | C15G C23A C45G | 0.01
9 | A14U C15G G22U U32C A39G | 0
10 | C15A U20G G33U | 0.99
11 | A14U A24C G44U | 0.02
12 | A14U A16U C23U G33U | 0.06
13 | C15G G17A G22C U32G | 0.06
14 | A14U G19U C23U | 0.86
15 | C15A G17A U38A | 0.01
16 | A14U G30A U34A | 0.48
17 | A14U A24G G35A C42U | 0.16
18 | A14G G27A C31G A39C | 0.02
19 | A14G G33C C37A G44A | 0.01
20 | A14G G27C C31U U34C | 0.4
21 | A14C C23U C46U | 0.09
22 | C15A G22A U28A U38A | 0.17
23 | A14G C37G C45A | 0
24 | A14C G27A C37G | 0.04

Row | Variant | self-cleavage
25 | C15G C31U U43G C46U | 0.02
26 | A14G C42G U43A | 0
27 | C15A C18A G40C | 0.01
28 | C15A A24G G33C G35C G40C | 0
29 | C15A U20C G40C | 0.02
30 | C15A G21U G36U | 0.04
31 | A14G G21C A24C G35U | 0.08
32 | A14U A26U G29U C37U G40U | 0.11
33 | C15A U20G G40C C42A | 0.01
34 | C15A G21A A39U | 0.28
35 | C15A C42U C46G | 0.03
36 | A14C G19A A41C | 0.02
37 | A14U C15A G17U G22C | 0.02
38 | C15A C23G G35C C37A | 0.33
39 | A14G C18A C23A U32G G36U | 0.22
40 | C15A G22A G36A U38A | 0.04
41 | A14G G30U C37G | 0.22
42 | A14U U20A G36U | 0.43
43 | A14U U28G G36U | 0.04
44 | C15A A39C C45G | 0.05
45 | A14C G17C G21U G22U G29U U32G G35A | 0.05
46 | C15A C23U G30U | 0.1
47 | C15A A41C C45U | 0.02
48 | C15A G27A G33U | 0.56

Row | Variant | self-cleavage
49 | C15A A24G G44A | 0.14
50 | A14G G19C G29U | 0.04
51 | A14U G27U G29A | 0.39
52 | A14U U28C A39U C45G | 0.15
53 | C15A C18A G21U | 0.03
54 | A14U G19C G21C A24U G29U G30C U43A | 0.02
55 | A14G U34G U43A | 0
56 | C15A C18A U34A G35U | 0.14
57 | A14G G22A A25C C31G | 0.09
58 | A14U A26U G33A | 0.18
59 | C15G C37A C42U | 0.03
60 | C15A G21U C31A G44A | 0.01
61 | C15A U20C C31G A41U | 0.01
62 | A14U G40U C46A | 0
63 | A14U C23A C46U | 0.6
64 | A14G G19U C46G | 0.11
65 | A14C G29C G30C U34G | 0.1
66 | C15G G17U G27A C46A | 0.05
67 | C15A C18G A26G | 0.04
68 | A14G G22C G35C C42G | 0.01
69 | A14C G22U G40U C42U | 0.02
70 | C15A C18G C37U C42U | 0.18
71 | A14U U20A U32G G36U G44U | 0.03
72 | C15A A25G G36C U38G U43C C45G | 0.01

Row | Variant | self-cleavage
73 | A14U C15G C46A | 0.02
74 | C15A C23A A26C C31G C37U | 0.02
75 | A14U A16G C42A | 0.06
76 | C15G C37U U38A | 0.03
77 | C15G G17A G44U | 0.01
78 | C15A G21A C23A G44U | 0.02
79 | A14G G17A A25U C45U | 0.03
80 | C15G G19A G27A | 0.09
81 | A14G G19A C23G A39G | 0.03
82 | C15A G40U C46A | 0.09
83 | A14G G30C C42A | 0.01
84 | A14G C42U C46G | 0.02
85 | A14U G22A A24C G27U C42A | 0.03
86 | A14G G19A G36U | 0.01
87 | C15A G22A G27U G29U | 0.13
88 | A14U A26U U34G | 0.7
89 | A14G G19A G35C | 0.1
90 | A14U G21A C23U A39C C42A | 0.1
91 | C15A G17C U43A | 0.05
92 | A14C C18G G40U C45A | 0.02
93 | A14C G22C U32A | 0.02
94 | C15G A24C G27C C31U | 0.01
95 | C15A G21U G35U | 0.2
96 | A14U G21A A24U G40U | 0.06

Row | Variant | self-cleavage
97 | C15G A26U U28A | 0.04
98 | A14G A16U G22A C42G | 0.01
99 | A14U C15A C37A | 0.01
100 | A14C A24G C42G | 0.07
101 | C15A G17C G33U C46G | 0.05
102 | C15A C31A U34G G40C G44U | 0
103 | C15G A16C A39G | 0.05
104 | C15A G33C A39U | 0.01
105 | C15A G29C G35U C45U | 0.14
106 | A14G G33A C46A | 0.04
107 | C15A G19U G21U | 0.04
108 | A14C C18U A26C | 0.19
109 | A14G G17U A24C U32G G36U | 0.09
110 | C15A C31U A39U | 0.02
111 | A14G U20A C31U G33A C46A | 0.03
112 | C15A A16C U32A | 0.03
113 | A14C C15G U34C G40C | 0.02
114 | C15A C18A G30A U43A | 0.07
115 | A14G A24U A25G C42A | 0.17
116 | A14C U20A G33U | 0.01
117 | A14C G29U G33A A39G | 0.02
118 | C15A A26C U34G | 0.03
119 | A14G U32A A41G | 0.21
120 | C15A C18A G36C | 0.08

Row | Variant | self-cleavage
121 | C15A G30A G33C | 0.01
122 | A14G G29U C42G | 0.05
123 | C15A C23U A26G G29U | 0.04
124 | A14U G21C U38A C42U | 0.06
125 | A14C G27A U34A | 0.03
126 | C15A A16G G19C C31U A39C | 0.01
127 | A14C G19U C37G | 0.16
128 | A14C C15A U43G C45U | 0.01
129 | A14G U38A C45G | 0.02
130 | C15A C23A C42U | 0
131 | A14U C18G C31G G35A | 0.02
132 | C15A A16G G19A C42A | 0.03
133 | A14C G27U U34C G35A | 0.02
134 | C15A A16G G35U G40C A41U C42U U43C | 0.03
135 | C15A G30C C31G C42U | 0.09
136 | A14C G29C U34C | 0
137 | A14G C23G G35A | 0.22
138 | A14C C15U G30A G36C C46A | 0.02
139 | C15A G19C G21U | 0.22
140 | A14U G29A U43C | 0.17
141 | C15A A25U G40C G44C | 0
142 | A14G C31A G36A A39G | 0.02
143 | A14C G22C U28A | 0.1
144 | A14U G21A G22U A25C | 0.2

Row | Variant | self-cleavage
145 | C15A C18A C23G U43A G44A C45U | 0
146 | C15G G17C C46U | 0
147 | C15G G17A C18U C42A U43A | 0.05
148 | C15G C23U C37A C45G | 0.01
149 | A14C A16U G33C G35U C46A | 0.02
150 | C15A G22U U43C | 0.02
151 | C15A G17A U28C | 0.03
152 | C15A A25U C45G | 0
153 | A14U C23U A26C | 1.4
154 | A14U C18A C46U | 0.02
155 | A14U C18A G21C U43C | 0.04
156 | A14G G19C C23U | 0.14
157 | A14G U32G G36C | 0.02
158 | A14U C18A G21A U34C | 0.07
159 | A14C A16U C46G | 0.02
160 | C15A C23U A26U | 0.11
161 | C15A A25C U32G C45U C46U | 0.02
162 | A14G G21U A26C G44C C45U | 0.02
163 | A14C A26G G40U C45G | 0.03
164 | A14U A26C G40C | 0.05
165 | C15G C23A A26U | 0.06
166 | A14G G17A C37G | 0.05
167 | C15A G30A C45G | 0.06

From the RNAGym collection of RNA variant scans (doi:10.7554/elife.90254)
